85 compounds from ChEMBL document CHEMBL4888484, “Replenishing the malaria drug discovery pipeline: Screening and hit evaluation of the MMV Hit Generation Library 1 (HGL1) against asexual blood stage Plasmodium falciparum ,using a nano luciferase reporter read-out” (2022) can be followed below.

Among all 150,000 compounds or so, about 540 (0.36%) showed an effect of 50% or more. The list shows a part of the results.

The experiment concerns Plasmodium falciparum. Nature of the experiment: Primary screen in NF54 nanoGlo assay, in single point, at 2uM, 72h; a lower Z score goes with more inhibition. The conditions noted are these: timepoint 72 hour. It counts as functional, Erythrocyte.
Usually % Inhibition stands for the relative decrease from the control value, in per cent. Take `CC(C)(C)CNCc1cnc(N)nc1N`: the “% Inhibition” value is on record as -5% and the Z score was determined as 0.58.
The like results for `CCC(C)c1ccc(C(CC)NC(=O)c2cc(C)nc3ncnn23)cc1` (stereo not given) were, in that order, 27% and -3.06.
As for `CN1CCC(NC(=O)c2ccc(=O)n(C)c2)C1c1ccc(F)c(F)c1` (stereo not given), the “% Inhibition” value is -18% and the Z score came to 1.51.
For the compound `Cc1cc(C(=O)N2CCN(c3nccc4occc34)CC2)on1`, the “% Inhibition” value is 10% and the Z score is recorded as -1.25.
The like results for `CC1CCN(c2nc3c(c(Oc4ccccc4)n2)CN(C(=O)c2ccc(Cl)c(Cl)c2)CC3)CC1` were, in that order, -14% and 2.61.
The like results for `O=C(NCc1ccccn1)c1n[nH]c2c1CCCCC2` were, in that order, -5% and 0.66.
As to `Cc1nc(-c2ccccc2NC(=O)C2CCN(S(C)(=O)=O)CC2)cs1`, the “% Inhibition” value is given as 3% and the Z score is reported as -0.38.
As to `CCc1nnc(CNC(=O)c2cccnc2O)s1`, the “% Inhibition” value is reported as -9% and the Z score is listed as 0.92.
The like results for `CCc1noc(Cn2cnc3c4ccccc4n(CC(=O)Nc4c(C)cccc4C)c3c2=O)n1` were, in that order, 6% and -0.8.
As for `CCCCCOCC(=O)NCc1cc2n(n1)CCC2`, the “% Inhibition” value was -14% and the Z score worked out at 2.52.
The like results for `Cn1cccc(NC(=O)NC2CCCCC2OC2CCCC2)c1=O` (stereo not given) were, in that order, -10% and 0.91.
The like results for `O=C(Nc1ccc2[nH]c(C3CC3)nc2c1)c1cccnc1` were, in that order, -6% and 0.69.
In the same order, the values of `CN(Cc1noc(-c2ccoc2)n1)c1ccccc1F` are 0% and -0.04.
As for `CC(C)(C)NC(=O)[C@@H]1CCCCN1CCc1ccncc1`, the “% Inhibition” value is -8% and the Z score came out at 0.77.
In the case of `O=C(NC1C2CCc3ccccc3C21)c1ccc(S(=O)(=O)Nc2ccncc2)cc1` (stereo not given), the “% Inhibition” value is -2% and the Z score is listed as 0.18.
Take `CS(=O)(=O)Cc1nc(Cc2ccccc2)c(-c2ccccc2)s1`: the “% Inhibition” value is recorded as 7% and the Z score is given as -1.19.
Take `COc1ccccc1OCC[C@H]1CCN(C(=O)COc2ccc(C)cc2)C1`: the “% Inhibition” value is -12% and the Z score is 2.29.
In the same order, the values of `COc1ccc(-c2ccc3c(c2)C(=O)N2CCN(C(=O)c4cccc(F)c4)C[C@@H]2C(=O)N3)cc1` are 29% and -3.24.
Consider `Nc1ncc(C(=O)N2CCC[C@H](c3cccc(C(=O)O)c3)C2)c(-c2ccccc2)n1`, for which the “% Inhibition” value stood at 6% and the Z score is given as -0.58.
For `Cc1nccnc1N1CCC(F)(F)[C@@H](C)C1`, the “% Inhibition” value is -4% and the Z score came out at 0.49.
The like results for `CCCn1nccc1NC(=O)c1ccoc1` were, in that order, 2% and -0.34.
Turning to `O=C(NCCc1noc2ccccc12)N[C@H]1CC[C@@H](C(=O)N2CCCCC2)C1`, the “% Inhibition” value is -3% and the Z score is on record as 0.46.
Turning to `Cc1cccc(CCCN[C@H]2CCC(=O)N(CC3CC3)CC2)c1`, the “% Inhibition” value is reported as -5% and the Z score worked out at 0.77.
As to `Cc1nc2c(C(=O)N3CCN(c4cnccn4)CC3)ccnc2[nH]1`, the “% Inhibition” value is 6% and the Z score is recorded as -1.24.
In the same order, the values of `Cc1ccc([C@@H](O)Cn2cc(C(=O)Nc3ccc(C)c(C)c3)nn2)cc1` are -27% and 2.68.
The like results for `O=C(N[C@@H]1CC[C@H]2CCOc3ccccc3C(=O)N3CCN(CC4CCCCC4)C[C@H]3C(=O)NC[C@H]1O2)C1CCOCC1` were, in that order, 2% and -0.25.
As to `CC(C)(C)c1ccc(Cn2cnc3c2c(=O)n(CC2CC2)c(=O)n3-c2ccccc2)cc1`, the “% Inhibition” value is -9% and the Z score came to 1.29.
The like results for `Cc1ccsc1CN(C)Cc1cnc(N2CCOCC2)nc1` were, in that order, -8% and 0.92.
In the same order, the values of `O=C(Nc1cccc(/C=C/c2ccncc2)c1)c1ccco1` are -8% and 0.99.
In the same order, the values of `Cc1ncnc(NCCc2n[nH]c(=O)n2C)c1C` are -4% and 0.7.
As for `CCn1cc(S(=O)(=O)NCc2nc(COC)no2)c(C)n1`, the “% Inhibition” value worked out at 11% and the Z score was -1.
On to `CC[C@H]1C=CCN1C(=O)c1cc2cc(F)ccc2n1C`, for which the “% Inhibition” value is given as -4% and the Z score was 0.71.
Regarding `CC(C)N1CCN(C(=O)CCc2nc3ccccc3[nH]2)CC1`, the “% Inhibition” value is -7% and the Z score is 0.85.
For the compound `CCN(CC)S(=O)(=O)N[C@@H](C)c1ccc(S(C)(=O)=O)cc1`, the “% Inhibition” value is 0% and the Z score is given as -0.04.
In the same order, the values of `CNC(=O)c1cc(N2CCCc3cc(OC)ccc3C2)ccn1` are -4% and 0.84.
`O=C(CN1CCOC1=O)N1CC[C@H](Oc2ccccn2)C1`: the “% Inhibition” value is -7% and the Z score is reported as 1.35.
In the same order, the values of `COC1CCN(c2nnc([C@@H]3CC[C@H](C)O3)n2CC(C)C)CC1` are 5% and -1.01.
The like results for `Cc1cc(C(=O)N2CCC(Nc3cccn4ncnc34)CC2)nn1C` were, in that order, -2% and 0.26.
In the same order, the values of `Cc1cccc(CNC(=O)c2n[nH]c3c2CN(C(=O)c2ccco2)CC3)c1` are -13% and 1.65.
Take `C#CCCCC(=O)NCc1ccccc1`: the “% Inhibition” value was -6% and the Z score came out at 0.67.
`O=C(NCCc1ccc(F)cc1)C(=O)Nc1ccc2c(c1)OCCO2`: the “% Inhibition” value is listed as -11% and the Z score is given as 1.67.
The like results for `Cc1ccc2cc(C(=O)N3CC(CO)OCC3C)ccc2n1` (stereo not given) were, in that order, -4% and 0.54.
The like results for `CCCc1noc(CCCC(=O)N2CCc3cccc(OC)c3CC2)n1` were, in that order, -11% and 1.26.
In the same order, the values of `C[C@@H](C(=O)NC1(c2ccccc2Cl)CCC1)n1cncn1` are 3% and -0.4.
For `CCOc1ccccc1NC(=O)CN1C(c2ccccc2)=C[C@@H](c2ccc(C)cc2)n2nnnc21`, the “% Inhibition” value is listed as -4% and the Z score is reported as 0.36.
As for `CCN(CC)C(=O)Cc1cccc(OC)c1`, the “% Inhibition” value was -9% and the Z score is given as 0.83.
Turning to `Cc1cc(C)n([C@@H](C)Cn2cc(Oc3ccccc3)c(=O)c(C(=O)O)c2)n1`, the “% Inhibition” value is 1% and the Z score is reported as -0.07.
Regarding `O=C(c1cccc(N2C(=O)CCS2(=O)=O)c1)N1CCCC1`, the “% Inhibition” value is given as -7% and the Z score is on record as 0.84.
On to `Cc1nccn1C1(C(=O)O)CCN(C(=O)c2ccc3c(c2)CCC3)CC1`, for which the “% Inhibition” value is given as -7% and the Z score is given as 1.47.
The like results for `Cc1ccc(S(=O)(=O)c2c(C(=O)N3CCCC3)cnc3ccc(F)cc23)cc1` were, in that order, -23% and 2.23.
Consider `O=S(=O)(CC1CCCCC1)NCc1nc(C(F)(F)F)cs1`, for which the “% Inhibition” value was -13% and the Z score stood at 1.69.
As for `CCc1cc(CNS(=O)(=O)c2ccc(-c3onc(C)c3C)o2)on1`, the “% Inhibition” value came out at 7% and the Z score is given as -0.9.
The like results for `O=C(NCc1c(F)cccc1F)c1cnc(-c2cccnc2)nc1` were, in that order, -9% and 1.6.
Consider `CCn1cc2c(n1)c(=O)n(Cc1ccc(C)cc1)c(=O)n2CC(=O)Nc1ccc(F)cc1`, for which the “% Inhibition” value was -4% and the Z score is 0.52.
The like results for `COC(=O)c1cc(CN)cc(NC(=O)C2CCCCC2)c1` were, in that order, -6% and 1.05.
Consider `Cc1c(C(=O)CC(=O)c2cnn(C)c2C)cnn1C`, for which the “% Inhibition” value amounted to 2% and the Z score is -0.26.
The like results for `Cc1cc(C(=O)N[C@H]2C[C@@H](N3CCCC3)C2)ns1` were, in that order, 3% and -0.55.
The like results for `O=C(Nc1nc2c(s1)CCC2)C1CC1C(=O)Nc1nc2c(s1)CCC2` (stereo not given) were, in that order, -4% and 0.36.
In the case of `CC(C)c1ccc(C(O)=Cc2nc3c(=O)[nH]c(=O)n(C)c3nc2O)cc1`, the “% Inhibition” value was -1% and the Z score stood at 0.05.
The like results for `Cc1n[nH]c([C@@H]2CN(Cc3noc(CC(C)C)n3)CCO2)n1` were, in that order, -12% and 1.2.
The like results for `COc1cc(NC(C)(C)CN2CCOCC2)ncn1` were, in that order, -11% and 0.99.
For `CC(C)N(CC(N)=O)CC(=O)NCc1ccccc1`, the “% Inhibition” value is 2% and the Z score is -0.22.
Regarding `CCc1nn(C)cc1C(=O)N[C@H]1CCS(=O)(=O)[C@H]1C`, the “% Inhibition” value is reported as -16% and the Z score is listed as 3.02.
The like results for `Nc1n[nH]c(C(=O)NC2CCN(S(=O)(=O)c3ccccc3)CC2)n1` were, in that order, -1% and 0.25.
In the same order, the values of `CCN1CCC(NC(=O)[C@@H]2CCCCN2C(=O)OC(C)(C)C)CC1` are -4% and 0.73.
With `Cc1nc(CN2CCN(C(=O)c3ccc(=O)[nH]c3)CC2)sc1C`, the “% Inhibition” value was -2% and the Z score worked out at 0.34.
The like results for `O=C(NCCCN1CCOCC1)c1cn2c(n1)CC[C@H](c1cc(C(F)(F)F)cc(C(F)(F)F)c1)C2` were, in that order, -5% and 0.97.
The like results for `CS(=O)(=O)C1CCC(NC(=O)NC2CC3CCC2O3)CC1` (stereo not given) were, in that order, 0% and -0.01.
The like results for `O=C(c1ccc(F)cc1Cl)N1C2C=CCC1CC2` (stereo not given) were, in that order, -11% and 1.95.
Consider `O=C(CCC(=O)c1ccc(Cl)cc1)NC1CCN(c2nc3cccnc3s2)CC1`, for which the “% Inhibition” value is -13% and the Z score is reported as 1.86.
In the same order, the values of `FC(F)c1ccc(CN2CCc3nccnc3C2)cc1` are -9% and 1.36.
Consider `Cc1cc(C)c(O)c(-c2cc(C(=O)Nc3sc4c(c3C#N)CCCC4)[nH]n2)c1`, for which the “% Inhibition” value amounted to 1% and the Z score is recorded as -0.17.
For the compound `O=S(=O)(CCC1CCCCC1)N1CC2CCC(O)CC2C1` (stereo not given), the “% Inhibition” value is reported as -16% and the Z score is listed as 1.81.
The like results for `COC(=O)C1=C(C(=O)OC)SC(=C2C(=S)C(C)(C)Nc3cc(C)c(C)cc32)S1` were, in that order, -7% and 0.82.
In the same order, the values of `Cn1nc(-c2cccc3cnccc23)nc1N1CCOCC1` are -1% and 0.16.
In the same order, the values of `Cn1cc(CN[C@H]2[C@H](O)[C@H](O)C[C@@H]2c2cccnc2)c2ccccc21` are 28% and -3.2.
As to `CCc1noc(CCNc2ncnc3[nH]ccc23)n1`, the “% Inhibition” value is -4% and the Z score amounted to 0.57.
In the same order, the values of `CC(C)Cn1c(Cn2cccn2)nc2cc(NC(=O)COc3ccccc3Cl)ccc21` are 10% and -1.55.
In the same order, the values of `Cc1ccc(C(C)(C)CN(C)Cn2ncsc2=S)cc1` are -16% and 2.47.
In the same order, the values of `COc1ccc(-c2cc(C)c(C)nc2O)cc1F` are -3% and 0.47.
In the case of `CCOCCC1(CNC(=O)[C@@H]2CCC(=O)N2)CCCC1`, the “% Inhibition” value turned out to be 2% and the Z score is recorded as -0.17.
With `O=C(Nc1cccc2c1OCO2)N1CCC[C@H](c2nc(=O)[nH][nH]2)C1`, the “% Inhibition” value turned out to be 7% and the Z score is on record as -1.28.
For `Cc1cc(C)n2ncc(-c3noc([C@H]4C[C@@H]4c4c[nH]cn4)n3)c2n1`, the “% Inhibition” value is recorded as -18% and the Z score stood at 3.6.
On to `Cc1cnc(NC(=O)c2cc(O)ncn2)s1`, for which the “% Inhibition” value is listed as -4% and the Z score was 0.71.
As to `CCC(c1ccccc1)C1CCCN1CC(=O)NC1CC1` (stereo not given), the “% Inhibition” value was -12% and the Z score is on record as 1.89.
